Measured values as given in PubChem BioAssay AID624173 (National Center for Advancing Translational Sciences (NCATS), 2012).
The whole screen tested about 410,000 compounds, of which about 490 (0.12%) were called active. The inconclusive results got no clear call from the source; some entries with a clear call stand among them for comparison. The call rests on the fitted dose curve; in most records, active means well fitted inhibition curve with a large enough effect; inconclusive means small, poorly fitted or top-dose-only effect; inactive means flat fitted curve, though single readings scatter. A potency beside an inconclusive call is a rough fit, not a confirmed value.

Target: pyruvate kinase (Trypanosoma brucei) (UniProt Q57TT1)
Test: qHTS of Trypanosoma Brucei Inhibitors; further: nearly all actives have a fitted effect of over 50% in size
Conditions: TbPYK enzyme, Kinase-Glo Plus ATP luminescence, 45 min; series mostly up to 76.8 µM; activity, negative = inhibition: at the top concentration
Outline: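 TbPYK + substrate in 50 mM TEA pH 7.2, 100 mM KCl, 10 mM MgCl2, 0.05% BSA, 0.01% Tween-20; cpd pinned; ADP 130 uM final; 45 min RT; Kinase-Glo Plus 10 min; luminescence endpoint.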
On the % scale 0 is the no-effect control and ±100 the full control effect; potency means the concentration at half of the fitted maximal effect; tags describe the fitted curve by direction and shape.

Compound	Potency	activity, negative = inhibition
CCOc1ccc(-c2cn3ccccc3n2)cc1	inconclusive: 28.2 µM [inhibitor, partial curve]	–
CCOc1ccc(-c2cc(CCCC(=O)NCCc3ccccc3)no2)cc1	–	inactive: -8.95%
Cn1cccc1/C=C1\SC(=S)N(NC(=O)c2ccccc2O)C1=O	–	inactive: -14.9%
COc1ccc(-c2nc(CS(=O)CC(=O)NCc3ccco3)c(C)o2)cc1 (centres undefined)	–	inactive: 2.24%
COc1ccc(C(=O)Nc2ccccc2C(=O)N/N=C/c2ccccc2OC)cc1	inconclusive: 39.8 µM [inhibitor, partial curve, poor fit]	–
Cc1n[nH]c(=S)n1-c1ccccc1	inconclusive: 17.8 µM [inhibitor, partial curve]	–
O=C1CN(C(=O)Cc2ccc(F)cc2)C(c2ccccc2)c2cc(Cl)ccc2N1 (centres undefined)	inconclusive: 44.7 µM [inhibitor, single point]	–
COc1ccccc1N(CC(=O)NCCSCc1ccccc1)S(=O)(=O)c1ccc(C)cc1	inactive	–
CCCC(=O)Nc1nc(C)c(-c2csc(Nc3ccccc3C)n2)s1	–	inactive: -11.2%
COC(=O)c1ccccc1CSc1nsc(/C=C/N(C)C)c1C#N	inconclusive: 15.8 µM [inhibitor, partial curve, poor fit]	–
O=C1NC(=O)C(=Cc2ccc(-c3ccc(Cl)cc3)o2)C(=O)N1	inconclusive: 14.1 µM [inhibitor, partial curve]	–
CC(=NNC(=S)N1CC2CCC(CC2)C1)c1nccs1	inconclusive: 7.94 µM [inhibitor, partial curve]	–
O=C1NC(=O)C(=Cc2ccc(N3CCN(C(=O)c4ccccc4)CC3)c([N+](=O)[O-])c2)C(=O)N1	inconclusive: 35.5 µM [inhibitor, partial curve, poor fit]	–
CC(C)(C)NC(=O)NC(=O)CN1CCN(c2ccc(O)cc2)CC1	inconclusive: 25.1 µM [inhibitor, partial curve, poor fit]	–
CCn1c(C2CCN(S(=O)(=O)c3ccc(OC)cc3)CC2)n[nH]c1=S	inconclusive: 14.1 µM [inhibitor, partial curve, poor fit]	–
COCC(=O)Nc1cc(OC)cc(OC)c1	–	inactive: 1.3%
Cc1cc(-c2n[nH]c(=S)n2/N=C/c2sccc2C)n[nH]1	active: 7.08 µM	–
Cn1c(=O)c2c(ncn2CC(=O)OCC(=O)c2ccc(OC(F)F)cc2OC(F)F)n(C)c1=O	–	inactive: -2.91%
C=CCn1c(-c2sc3nc(C)cc(C)c3c2N)n[nH]c1=S	inconclusive: 3.55 µM [inhibitor, full curve]	–
Clc1ccc(N=c2ssnc2Cl)cc1	active: 25.1 µM	–
COc1cc(C2CC(=O)N3CN(Cc4ccccc4)CSC3=C2C#N)ccc1OCc1ccccc1 (centres undefined)	inconclusive: 1.78 µM [inhibitor, partial curve, poor fit]	–
Cn1cc([N+](=O)[O-])c(C(=O)Nc2ccc(-c3nc4ccccc4[nH]3)cc2)n1	–	inactive: 1.59%
Nc1cc(S(=O)(=O)N2CCOCC2)ccc1N1CCCCC1	inconclusive: 35.5 µM [inhibitor, single point]	–

Compound	Potency	activity, negative = inhibition
COc1ccc(OC)c(-n2c(-c3ccc(C)cc3)n[nH]c2=S)c1	inconclusive: 2.51 µM [inhibitor, full curve, poor fit]	–
O=C(O)CC(Sc1n[nH]c(=S)s1)C(=O)O (centres undefined)	inconclusive: 39.8 µM [inhibitor, partial curve, poor fit]	–
COc1ccccc1N1CCN(C(=O)CSc2nnc3n2C(C)(C)Cc2ccccc2-3)CC1	inconclusive: 35.5 µM [inhibitor, partial curve, poor fit]	–
CCOc1ccc2nc(NC(=O)c3ccoc3C)sc2c1	inconclusive: 25.1 µM [inhibitor, partial curve, poor fit]	–
Cc1cc(F)ccc1NC(=O)c1ccc(NS(=O)(=O)c2cc(C(C)(C)C)ccc2C)cc1	inconclusive: 39.8 µM [inhibitor, single point]	–
O=C(O)c1ccc2c(c1)C1C=CCC1C(c1ccncc1)N2 (centres undefined)	–	inactive: -14.6%
S=c1[nH]c(-c2ccccc2)cs1	inconclusive: 15.8 µM [inhibitor, partial curve, poor fit]	–
O=c1oc2ccccc2c(O)c1Sc1c(O)c2ccccc2oc1=O	inconclusive: 22.4 µM [inhibitor, partial curve, poor fit]	–
Oc1ccc2n[nH]nc2c1	–	inactive: -9.64%
Cc1onc(-c2c(Cl)cccc2Cl)c1C(=O)N1CCCc2ccccc21	inconclusive: 44.7 µM [inhibitor, single point]	–
COc1ccc(-n2c(CCc3ccccc3)n[nH]c2=S)cc1	inconclusive: 10 µM [inhibitor, partial curve, poor fit]	–
c1cncc(CNc2ccc3c(c2)OCO3)c1	inconclusive: 6.31 µM [inhibitor, partial curve]	–
CCCC12CN(C(=O)c3ccc([N+](=O)[O-])cc3)CC(C)(CN(C(=O)c3ccc([N+](=O)[O-])cc3)C1)C2=O	inconclusive: 56.2 µM [inhibitor, single point]	–
O=C(c1cn(-c2ccccc2)nc1-c1ccccc1)N1CCN(c2ccccn2)CC1	–	inactive: -1.36%
COc1ccccc1NS(=O)(=O)c1cc(NC(=O)c2ccc(NC(C)=O)cc2)ccc1N1CCOCC1	inconclusive: 8.91 µM [inhibitor, partial curve, poor fit]	–
COC(=O)c1sccc1NC(=O)CN(C)NS(=O)(=O)c1ccc([N+](=O)[O-])cc1	inconclusive: 31.6 µM [inhibitor, partial curve, poor fit]	–
CCOc1ccc(/C=C2\SC(=S)NC2=O)cc1OC	–	inactive: -10.1%
Cc1c(C(=O)NN2CCCCC2)nn(-c2ccc(Cl)cc2Cl)c1-c1ccc(Cl)cc1	–	inactive: -4.67%
COc1ccc(C(C)=O)cc1Cc1c(O)[nH]c(=S)[nH]c1=O	inconclusive: 25.1 µM [inhibitor, partial curve]	–
Fc1ccc(NCc2n[nH]c(=S)n2Cc2ccccc2)cc1	active: 7.08 µM	–
NS(=O)(=O)c1cccc(NC(=O)c2cccs2)c1	inconclusive: 39.8 µM [inhibitor, partial curve, poor fit]	–
CCOC(=O)/C(=C\c1ccc(OC(F)F)cc1)C1=Nn2c(nnc2-c2ccc(Cl)cc2)SC1	inconclusive: 44.7 µM [inhibitor, partial curve, poor fit]	–
CCSc1nc(N)c2c(C)c(C)sc2n1	inconclusive: 31.6 µM [inhibitor, single point]	–

Compound	Potency	activity, negative = inhibition
Nc1n[nH]c(=S)n1-c1ccc(Cl)cc1	inconclusive: 39.8 µM [inhibitor, partial curve, poor fit]	–
CC(C)CCNC(=O)NC(=O)CSc1ccc(S(=O)(=O)N2CCOCC2)cn1	inconclusive: 25.1 µM [inhibitor, partial curve, poor fit]	–
CCc1ccc(-c2ccc(C(=O)O)cc2)nc1	inconclusive: 25.1 µM [inhibitor, partial curve, poor fit]	–
COc1ccc(CN2CC(=O)N(c3ccccc3C)C2=S)cc1OC	–	inactive: -1.45%
CCOc1ccccc1Oc1coc2cc(O)ccc2c1=O	–	inactive: 3.14%
O=[N+]([O-])c1ccc(Cl)c(/C=N/n2c(COc3ccccc3)n[nH]c2=S)c1	–	inactive: -22.1%
Cc1ccc(NC(=O)NC(=O)CN2CCN(c3ccc(O)cc3)CC2)c(C)c1	inconclusive: 12.6 µM [inhibitor, partial curve, poor fit]	–
Cc1ccc(/C=N\n2c(-c3ccccc3)n[nH]c2=S)s1	inconclusive: 11.2 µM [inhibitor, partial curve]	–
S=C(NCCc1ccccc1)NC1CCCCCC1	–	inactive: -1.51%
O=C1CCCCC1C(=O)c1cn(-c2ccc(Cl)c(Cl)c2)nn1 (centres undefined)	–	inactive: 1.41%
Cn1c(N)c(C(=O)CSc2ccc3c(c2)OCCO3)c(=O)n(C)c1=O	–	inactive: -1.45%
CC1=C(C(N)=O)C(c2ccccc2[N+](=O)[O-])n2ncnc2N1 (centres undefined)	inconclusive: 15.8 µM [inhibitor, partial curve, poor fit]	–
Cc1nc(N2CCCCC2)c2c(C)c(C(=O)Nc3cccc(C(F)(F)F)c3)sc2n1	–	inactive: 3.99%
Cc1ccc(-n2nc3c(N4CCCC(C(=O)NCc5ccc(Cl)cc5)C4)nnc(C)c3c2C)cc1 (centres undefined)	–	inactive: 1.79%
O=C(Nc1ccc(N2CCOCC2)cc1)c1cn2ccccc2n1	inconclusive: 35.5 µM [inhibitor, partial curve]	–
CCOC(=O)C1Nc2ccccc2C2C(O)C(O)CC12 (centres undefined)	inconclusive: 31.6 µM [inhibitor, partial curve, poor fit]	–
Nc1sc2c(c1C(=O)NC1CCS(=O)(=O)C1)CCCC2 (centres undefined)	inconclusive: 28.2 µM [inhibitor, partial curve]	–
COc1cc(OC)c(C2CC(=O)N3CN(c4ccc(C)cc4)CSC3=C2C#N)cc1OC (centres undefined)	active: 1.58 µM	–
CCCCCCNC(=O)N[C@@H](C(=O)NCCC[C@H]1CN2C(=NC[C@@H]2Cc2ccccc2)N1CCc1cccc(OC)c1)C(C)C	inconclusive: 12.6 µM [inhibitor, partial curve, poor fit]	–
NC(=O)c1c(NC(=O)C2CC=CCC2C(=O)O)sc2c1CCCCC2 (centres undefined)	inconclusive: 14.1 µM [inhibitor, partial curve, poor fit]	–
Cc1ccccc1-n1c([C@@H]2C[C@H]2c2ccccc2)n[nH]c1=S	inconclusive: 20 µM [inhibitor, partial curve]	–
COc1ccc(C(=O)N2CCC(c3nc4ccccc4s3)CC2)cc1Cl	–	inactive: 0.769%
COc1cc(/C=N/Nc2nncn2/N=C/c2ccc(O)c(OC)c2)ccc1O	inconclusive: 35.5 µM [inhibitor, partial curve, poor fit]	–
